{"source": "ChEMBL document CHEMBL4888484", "about": "“Replenishing the malaria drug discovery pipeline: Screening and hit evaluation of the MMV Hit Generation Library 1 (HGL1) against asexual blood stage Plasmodium falciparum ,using a nano luciferase reporter read-out” (2022)", "note": "Screen size: about 150,000 compounds; about 540 (0.36%) showed an effect of 50% or more. The list shows a part of the results."}
{"system": "Plasmodium falciparum", "experiment": "Primary screen in NF54 nanoGlo assay, in single point, at 2uM, 72h; a lower Z score goes with more inhibition", "type": "functional, Erythrocyte", "settings": "timepoint 72 hour", "units": {"% Inhibition": "%"}}
{"smiles": "CC1(C)CN(C(=O)COc2ccccc2-c2ccccc2)CCS1(=O)=O", "% Inhibition": 3, "Z score": -0.41}
{"smiles": "C[C@H](NCC1OCCO1)c1cnn(C)c1", "% Inhibition": -15, "Z score": 1.69}
{"smiles": "C#CCCC1(CCC(=O)Nc2ccn(CC(N)=O)n2)N=N1", "% Inhibition": 0, "Z score": -0.01}
{"smiles": "C[C@@H](CO)NC(=O)Nc1ccc(F)cn1", "% Inhibition": -12, "Z score": 1.67}
{"smiles": "Cn1nnc2c(=O)n(CC(=O)NCc3ccc(F)cc3)cnc21", "% Inhibition": -7, "Z score": 1.03}
{"smiles": "C[C@H]1C[C@@H](CO)CCN1Cc1cnc(C(C)(C)C)s1", "% Inhibition": -27, "Z score": 3.19}
{"smiles": "COc1c(C)cc([C@H]2CCc3nc(C(=O)NCCN4CCCCC4)cn3C2)cc1C", "% Inhibition": -2, "Z score": 0.25}
{"smiles": "CN(C)CCNC(=O)c1ccc(OCc2nnc(C(=O)Nc3ccc(F)cc3F)s2)cc1", "% Inhibition": -7, "Z score": 0.64}
{"smiles": "Cc1c(CNC(=O)N[C@@H](C2CCCC2)C(F)(F)F)cnn1C", "% Inhibition": -14, "Z score": 1.42}
{"smiles": "COc1cc(N2C[C@H]3CC[C@@H](C2)N(Cc2c(C)noc2C)C3=O)nc(N)n1", "% Inhibition": -10, "Z score": 1.92}
{"smiles": "CCn1ccc(C(=O)N2CCC[C@@]3(C2)Nc2cccnc2N=C3NCc2ccccc2)n1", "% Inhibition": 35, "Z score": -3.95}
{"smiles": "COc1ccc(CCN(Cc2ccco2)C(=O)CN(C(C)C)S(=O)(=O)c2c(C)cc(C)cc2C)cc1OC", "% Inhibition": -7, "Z score": 1.04}
{"smiles": "Cc1c(C)[n+](O)c([C@H](CC(=O)O)c2cccc(O)c2)n1C", "% Inhibition": -12, "Z score": 1.51}
{"smiles": "C[C@@H](c1ccccn1)S(=O)(=O)C1CCCCC1", "% Inhibition": -6, "Z score": 1.12}
{"smiles": "Cc1cc(C)c(C(N)=O)c(-c2ccc(C(=O)N3CCCC3)cc2)n1", "% Inhibition": -7, "Z score": 1.26}
{"smiles": "Cn1cc([C@H]2CCCN(C(=O)Cc3ccc4c(c3)OCO4)C2)cn1", "% Inhibition": 1, "Z score": -0.14}
{"smiles": "CNC(=O)C1CCCC1NC(=O)NCc1nc(C(F)(F)F)cs1", "note": "(stereo not given)", "% Inhibition": 1, "Z score": -0.2}
{"smiles": "CCc1c(C)sc2ncnc(N[C@@H](C)c3cnn(C)c3)c12", "% Inhibition": -2, "Z score": 0.47}
{"smiles": "Cc1ccc(CNC(=O)Cc2nnc(-c3ccc4ncccc4c3)o2)cc1C", "% Inhibition": 9, "Z score": -0.89}
{"smiles": "COc1cc(CCO)ccc1NC1CCN([C@H]2CCOC2)CC1", "% Inhibition": 9, "Z score": -1.34}
{"smiles": "Cc1ccc(N(C)[C@H]2CCCN(C(=O)Nc3ccc(F)cc3CS(C)(=O)=O)C2)cc1", "% Inhibition": -8, "Z score": 1.04}
{"smiles": "O=C(c1ccc2ccccc2n1)N1CCCCCCC1", "% Inhibition": 5, "Z score": -0.59}
{"smiles": "O=C(CN1c2ccc(F)cc2-c2ccccc2S1(=O)=O)N1CCN(Cc2ccccc2)CC1", "% Inhibition": 0, "Z score": -0.07}
{"smiles": "Cc1ccc(C)c(S(=O)(=O)NCCCN(C)C)c1", "% Inhibition": 1, "Z score": -0.11}
{"smiles": "CCCCN1CCN(C(=O)[C@H](CC)N(C)CC)CC1", "% Inhibition": -5, "Z score": 0.87}
{"smiles": "O=C(NCc1ccc2c(c1)OCO2)C(F)(F)C(F)(F)C(F)(F)C(F)(F)C(=O)NCc1ccc2c(c1)OCO2", "% Inhibition": 37, "Z score": -4.23}
{"smiles": "CCOc1ccccc1C(=O)N1CCOCc2ccccc21", "% Inhibition": -2, "Z score": 0.33}
{"smiles": "Cc1noc(C)c1S(=O)(=O)N1CC(n2cc(C(=O)N(C)C)nn2)C1", "% Inhibition": -15, "Z score": 2.88}
{"smiles": "Cc1cccn2c(=O)cc(CN3CCCCC3)nc12", "% Inhibition": 27, "Z score": -3.52}
{"smiles": "CN(C)c1ccc(C(=O)N[C@H]2C[C@H]3C(=O)NC[C@@H](CCC(=O)NCc4ccc(F)cc4)N3C2)cc1", "% Inhibition": -7, "Z score": 1.33}
{"smiles": "Cc1nnc(-c2ccccc2-c2ccc(F)cc2Cl)o1", "% Inhibition": -13, "Z score": 1.23}
{"smiles": "Cc1ccc(S(=O)(=O)c2ncccc2CN2CCN(c3ccc(F)cc3)CC2)cc1", "% Inhibition": 1, "Z score": -0.19}
{"smiles": "Cc1nc(CN2CCC[C@H]2c2cccn2C)cs1", "% Inhibition": -7, "Z score": 1.08}
{"smiles": "OCCC1(Nc2nc(C3CCCC3)ns2)CCCC1", "% Inhibition": 2, "Z score": -0.43}
{"smiles": "O=C(O)c1ccc2nc(-c3ccc(Oc4ccccc4)cc3)c(-c3ccc(Oc4ccccc4)cc3)nc2c1", "% Inhibition": 1, "Z score": -0.26}
{"smiles": "CN(Cc1ccon1)C(=O)C[C@]1(c2ccc(-c3ccccc3)cc2)CC(=O)N(C)C1=O", "% Inhibition": -6, "Z score": 1.13}
{"smiles": "Cc1cccc(C(=O)N(Cc2cccs2)[C@H]2CCS(=O)(=O)C2)c1", "% Inhibition": -13, "Z score": 1.2}
{"smiles": "O=C(Cn1ccc([C@H]2CCCNC2)n1)NCc1c(F)cccc1Cl", "% Inhibition": 0, "Z score": -0.03}
{"smiles": "O=C(NCC[C@H]1CCOC1)C1(N2CCCC2)CCCC1", "% Inhibition": 2, "Z score": -0.15}
{"smiles": "CC1(C)NC(=O)N(CCCS(=O)(=O)Cc2ccccc2F)C1=O", "% Inhibition": 12, "Z score": -1.53}
{"smiles": "CCn1cc(OCc2ccc(C(F)F)cc2)cn1", "% Inhibition": -7, "Z score": 1.32}
{"smiles": "CC(=O)c1ccc(NC(=O)c2cc(=O)c(OCc3ccccc3)c[nH]2)cc1", "% Inhibition": -9, "Z score": 1.1}
{"smiles": "CCCc1nc(CN(C(C)C)C2COC2)no1", "% Inhibition": 2, "Z score": -0.29}
{"smiles": "CC1CN(CC(O)COc2ccc3c(c2)OCO3)CC(C)O1", "note": "(stereo not given)", "% Inhibition": -15, "Z score": 2.69}
{"smiles": "C[C@@H](c1ccncn1)N(C)Cc1cc(=O)n2ncnc2[nH]1", "% Inhibition": -7, "Z score": 0.91}
{"smiles": "O=C(Nc1ccc(CCC(F)(F)F)cc1)N1C[C@@H](O)C[C@H]1CO", "% Inhibition": -9, "Z score": 1.02}
{"smiles": "O=C(NC1CCCCCCC1)[C@H]1CCCN(c2ccc3nnnn3n2)C1", "% Inhibition": -21, "Z score": 2.98}
{"smiles": "Cn1cc([C@@H](O)C(=O)N2CCC(c3c[nH]c4ccccc34)CC2)cn1", "% Inhibition": -7, "Z score": 0.75}
{"smiles": "COC[C@H]1CN(C(=O)c2ccc3ncccc3c2)CC12CCOCC2", "% Inhibition": -19, "Z score": 3.56}
{"smiles": "COCc1csc(NC(=O)Nc2ccsc2)n1", "% Inhibition": 7, "Z score": -0.8}
{"smiles": "CCCC1(CNC(=O)Nc2nc(CS(C)(=O)=O)no2)CC1", "% Inhibition": 29, "Z score": -4.13}
{"smiles": "O=C(CC1CCC1)NC1CC(F)(F)C1", "% Inhibition": -3, "Z score": 0.55}
{"smiles": "Cc1cccc(NC(=O)[C@H](C)n2c(C)nc3onc(C)c3c2=O)c1C", "% Inhibition": 1, "Z score": -0.14}
{"smiles": "C[C@@H]1CN(C(=O)c2n[nH]c(N)c2Cl)CC[C@@]1(O)C1CCOCC1", "% Inhibition": -9, "Z score": 1.52}
{"smiles": "CC1CCN(CCCn2c(=O)[nH]c3ccccc32)CC1", "% Inhibition": -6, "Z score": 0.75}
{"smiles": "Cc1nc(C(=O)N(CCc2cccc(F)c2)C2CC2)ccc1C(=O)O", "% Inhibition": -1, "Z score": 0.15}
{"smiles": "O=C(CN1CCN(S(=O)(=O)c2ccc3c(c2)CCCC3)CC1)Nc1ccc(F)c(Cl)c1", "% Inhibition": 3, "Z score": -0.26}
{"smiles": "Cn1c(CC(F)(F)F)nnc1N1CCOCC2(CCC2)C1", "% Inhibition": -10, "Z score": 1.94}
{"smiles": "Cc1nn(-c2ccccc2)c(C)c1N1CCN(C(=O)c2ccc3nsnc3c2)CC1", "% Inhibition": 4, "Z score": -0.63}
{"smiles": "CCc1ccccc1CN=C(N)NC(C)(C)C", "% Inhibition": 6, "Z score": -0.64}
{"smiles": "Cc1cc(CNC(=O)NCCC2(C)OCCO2)ccc1Cl", "% Inhibition": -2, "Z score": 0.18}
{"smiles": "C[C@]1(c2cccc(F)c2)CCN(C(=O)Nc2ccnn2C2CCC2)C1", "% Inhibition": -10, "Z score": 1.36}
{"smiles": "Nc1n[nH]c2ccc(C3OCCCO3)cc12", "% Inhibition": 37, "Z score": -4.79}
{"smiles": "O=C(Cc1ccc(Cl)cc1)N1CCN(c2cnsn2)CC1", "% Inhibition": -15, "Z score": 1.98}
{"smiles": "c1ccc(CCN2CCC(c3ccsc3)CC2)nc1", "% Inhibition": 0, "Z score": -0.03}
{"smiles": "N#CCN(Cc1ccccc1)C(=O)CCc1ccc2c(c1)OCO2", "% Inhibition": -5, "Z score": 0.42}
{"smiles": "O=C1CN(CCCOc2ccc(F)cc2)CCCN1", "% Inhibition": 8, "Z score": -1.12}
{"smiles": "O=C(CN1CCC(O)CC1)N1CCC[C@H](c2[nH]ncc2-c2ccc(F)cc2)C1", "% Inhibition": -11, "Z score": 1.08}
{"smiles": "c1ccc(N2CC[C@H](N3CCN(c4ccncc4)CC3)C2)cc1", "% Inhibition": 4, "Z score": -0.61}
{"smiles": "Cc1nc(C(=O)N2CCN(Cc3ccccc3)CC2)co1", "% Inhibition": -7, "Z score": 1}
{"smiles": "CCCN(CC1CC1)S(=O)(=O)N1CCC[C@@H]1CO", "% Inhibition": -16, "Z score": 1.82}
{"smiles": "O=C(Cn1cnc2cc3c(cc21)OCCCO3)Nc1ccc(F)cc1", "% Inhibition": 31, "Z score": -4.49}
{"smiles": "Cc1cc(C(=O)NC2CCN(C(=O)c3cn[nH]c3)CC2)ccc1F", "% Inhibition": 1, "Z score": -0.11}
{"smiles": "Cc1ccc(CNS(=O)(=O)c2ccc3c(c2)C(C)(C)CN3CC(=O)N2CCCC2)cc1", "% Inhibition": -1, "Z score": 0.08}
{"smiles": "CN1CCC(CNC(=O)c2ccc(-c3ccc(C#N)nc3)cc2)(N(C)C)CC1", "% Inhibition": 4, "Z score": -0.48}
{"smiles": "Cn1cc(-c2noc(-c3ccc(C#N)cc3)n2)ccc1=O", "% Inhibition": 36, "Z score": -5.18}
{"smiles": "Cc1nn(C[C@@H](O)CN2C(=O)c3ccccc3C2=O)c(C)c1Br", "% Inhibition": -8, "Z score": 1.01}
{"smiles": "CNC(=O)CN1CCC(CN(C)c2noc(-c3ccccc3)n2)CC1", "% Inhibition": -2, "Z score": 0.17}
{"smiles": "C#CCNC(=O)N1CCC(C(C)(C)C)C(O)C1", "note": "(stereo not given)", "% Inhibition": -6, "Z score": 0.5}
{"smiles": "C[C@H]1CN(C(=O)c2ccc(-c3c(O)ccc4ccccc34)cc2)CCCO1", "% Inhibition": -25, "Z score": 2.95}
{"smiles": "C=CCNC(=O)[C@H]1CCCC[C@H]1C(=O)NCC1(O)CCCCC1", "% Inhibition": 2, "Z score": -0.24}
{"smiles": "Cc1ccc(CN(C)[C@@H](C)CC(N)=O)cc1", "% Inhibition": -15, "Z score": 1.77}
{"smiles": "CC(C)c1noc([C@H](C)NS(=O)(=O)c2cccc3nn(C)nc23)n1", "% Inhibition": -5, "Z score": 0.7}
{"smiles": "Cc1cc(O)c([C@H](c2ccccc2)N2CCN(c3ccccc3)CC2)c(=O)n1Cc1ccccn1", "% Inhibition": 6, "Z score": -0.83}
{"smiles": "COc1c(C)cc(S(=O)(=O)NC[C@@H](c2ccsc2)N2CCc3ccccc3C2)cc1C", "% Inhibition": -16, "Z score": 2.01}
